These are yes or no findings as the source states them, for the method shown. Some entries that bind do so weakly or less than the wild type.
T1: G4BD-Rps2(1–145).R95R97K99>A (S. cerevisiae) (UniProt P25443)
T1 sequence: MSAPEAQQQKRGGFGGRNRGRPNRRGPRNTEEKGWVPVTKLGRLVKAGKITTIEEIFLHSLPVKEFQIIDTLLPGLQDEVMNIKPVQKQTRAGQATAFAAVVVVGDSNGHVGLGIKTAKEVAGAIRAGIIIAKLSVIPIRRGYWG

T2: Rps2.R95R97K99>A-G4BD (S. cerevisiae) (UniProt P25443)
T2 sequence: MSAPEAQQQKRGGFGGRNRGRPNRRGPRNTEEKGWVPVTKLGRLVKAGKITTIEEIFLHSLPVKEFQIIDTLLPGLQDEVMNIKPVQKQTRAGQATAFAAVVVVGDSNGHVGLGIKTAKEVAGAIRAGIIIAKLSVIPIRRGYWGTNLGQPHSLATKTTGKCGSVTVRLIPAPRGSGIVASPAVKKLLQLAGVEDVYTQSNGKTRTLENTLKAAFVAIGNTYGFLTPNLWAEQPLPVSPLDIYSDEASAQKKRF

T3: Rps2(1–145).R95R97K99>A-G4BD (S. cerevisiae) (UniProt P25443)
T3 sequence: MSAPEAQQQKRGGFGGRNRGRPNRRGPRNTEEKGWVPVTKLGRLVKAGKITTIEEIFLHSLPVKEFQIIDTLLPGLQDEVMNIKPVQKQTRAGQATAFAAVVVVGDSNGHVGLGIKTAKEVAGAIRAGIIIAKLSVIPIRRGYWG

T4: Rps2(76–145)-G4BD (S. cerevisiae) (UniProt P25443)
T4 sequence: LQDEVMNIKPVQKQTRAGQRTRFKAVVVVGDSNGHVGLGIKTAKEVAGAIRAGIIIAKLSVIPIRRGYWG

T5: G4BD-Rps2(76–145).R95R97K99>A (S. cerevisiae) (UniProt P25443)
T5 sequence: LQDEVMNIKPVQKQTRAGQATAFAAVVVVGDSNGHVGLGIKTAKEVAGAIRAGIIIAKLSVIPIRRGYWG

T6: Rps2-G4BD (S. cerevisiae) (UniProt P25443)
T6 sequence: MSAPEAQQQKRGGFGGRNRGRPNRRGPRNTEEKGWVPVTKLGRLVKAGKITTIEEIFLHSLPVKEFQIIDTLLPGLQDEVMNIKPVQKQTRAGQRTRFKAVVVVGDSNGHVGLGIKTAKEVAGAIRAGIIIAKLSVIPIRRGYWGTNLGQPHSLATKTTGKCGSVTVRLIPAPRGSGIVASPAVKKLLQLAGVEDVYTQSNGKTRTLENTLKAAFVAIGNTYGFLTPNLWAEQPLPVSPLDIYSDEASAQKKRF

T7: G4BD-Rps2 (S. cerevisiae) (UniProt P25443)
T7 sequence: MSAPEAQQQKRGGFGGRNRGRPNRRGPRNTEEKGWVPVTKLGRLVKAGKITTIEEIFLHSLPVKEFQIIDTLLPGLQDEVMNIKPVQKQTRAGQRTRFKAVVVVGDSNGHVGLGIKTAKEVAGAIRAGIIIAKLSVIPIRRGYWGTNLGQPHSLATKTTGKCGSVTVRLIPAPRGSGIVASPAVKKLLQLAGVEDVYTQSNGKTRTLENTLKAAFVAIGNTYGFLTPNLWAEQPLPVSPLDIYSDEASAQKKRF

T8: G4BD-Rps2(1–145) (S. cerevisiae) (UniProt P25443)
T8 sequence: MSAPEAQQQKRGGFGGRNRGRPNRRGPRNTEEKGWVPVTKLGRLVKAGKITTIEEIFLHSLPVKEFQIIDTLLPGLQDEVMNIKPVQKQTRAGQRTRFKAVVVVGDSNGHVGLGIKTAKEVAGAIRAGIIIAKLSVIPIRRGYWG

T9: Rps2(1–145)-G4BD (S. cerevisiae) (UniProt P25443)
T9 sequence: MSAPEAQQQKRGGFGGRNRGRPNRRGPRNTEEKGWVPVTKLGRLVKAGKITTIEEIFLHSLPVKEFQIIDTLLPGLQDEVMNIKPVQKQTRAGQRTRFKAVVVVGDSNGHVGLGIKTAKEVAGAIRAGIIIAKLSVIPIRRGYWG

T10: G4BD-Rps2(76–145) (S. cerevisiae) (UniProt P25443)
T10 sequence: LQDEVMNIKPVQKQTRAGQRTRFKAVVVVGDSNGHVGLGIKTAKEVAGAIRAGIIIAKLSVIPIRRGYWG

T11: Rps2(76–145).R95R97K99>A-G4BD (S. cerevisiae) (UniProt P25443)
T11 sequence: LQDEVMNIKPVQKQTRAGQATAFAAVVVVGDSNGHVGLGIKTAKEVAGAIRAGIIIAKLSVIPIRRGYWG

T12: G4BD-Rps2.R95R97K99>A (S. cerevisiae) (UniProt P25443)
T12 sequence: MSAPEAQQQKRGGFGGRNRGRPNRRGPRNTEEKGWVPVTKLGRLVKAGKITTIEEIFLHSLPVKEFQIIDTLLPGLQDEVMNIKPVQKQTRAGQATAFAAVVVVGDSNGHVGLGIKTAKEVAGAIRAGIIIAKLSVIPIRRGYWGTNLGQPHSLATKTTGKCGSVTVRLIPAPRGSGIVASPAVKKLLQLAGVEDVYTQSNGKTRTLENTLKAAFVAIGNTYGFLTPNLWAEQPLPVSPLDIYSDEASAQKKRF


How the values were obtained:
Assay in all cases: two-hybrid; Yeast strain PJ69-4A; Rps2 variants N- or C-terminally fused to the Gal4 DNA-binding domain, Pse1 or Pse1.302C C-terminally fused to the Gal4 activation domain, 2µ high-copy plasmids; growth on -HLT (weak) and -ALT (strong), 3 days at 30 °C
[1] = molecular target: T1, G4BD-Rps2(1–145).R95R97K99>A (S. cerevisiae)
[2] = molecular target: T2, Rps2.R95R97K99>A-G4BD (S. cerevisiae)
[3] = molecular target: T3, Rps2(1–145).R95R97K99>A-G4BD (S. cerevisiae)
[4] = molecular target: T4, Rps2(76–145)-G4BD (S. cerevisiae)
[5] = molecular target: T5, G4BD-Rps2(76–145).R95R97K99>A (S. cerevisiae)
[6] = molecular target: T6, Rps2-G4BD (S. cerevisiae)
[7] = molecular target: T7, G4BD-Rps2 (S. cerevisiae)
[8] = molecular target: T8, G4BD-Rps2(1–145) (S. cerevisiae)
[9] = molecular target: T9, Rps2(1–145)-G4BD (S. cerevisiae)
[10] = molecular target: T10, G4BD-Rps2(76–145) (S. cerevisiae)
[11] = molecular target: T11, Rps2(76–145).R95R97K99>A-G4BD (S. cerevisiae)
[12] = molecular target: T12, G4BD-Rps2.R95R97K99>A (S. cerevisiae)

| Binder | binding [1] | binding [2] | binding [3] | binding [4] | binding [5] | binding [6] | binding [7] | binding [8] | binding [9] | binding [10] | binding [11] | binding [12] |
| --- | --- | --- | --- | --- | --- | --- | --- | --- | --- | --- | --- | --- |
| Pse1.302C-G4AD (domain or fragment, UniProt P32337 302-1089) SNQNYGQTLVMVTLIMMTEVSIDDDDAAEWIESDDTDDEEEVTYDHARQALDRVALKLGGEYLAAPLFQYLQQMITSTEWRERFAAMMALSSAAEGCADVLIGEIPKILDMVIPLINDPHPRVQYGCCNVLGQISTDFSPFIQRTAHDRILPALISKLTSECTSRVQTHAAAALVNFSEFASKDILEPYLDSLLTNLLVLLQSNKLYVQEQALTTIAFIAEAAKNKFIKYYDTLMPLLLNVLKVNNKDNSVLKGKCMECATLIGFAVGKEKFHEHSQELISILVALQNSDIDEDDALRSYLEQSWSRICRILGDDFVPLLPIVIPPLLITAKATQDVGLIEEEEAANFQQYPDWDVVQVQGKHIAIHTSVLDDKVSAMELLQSYATLLRGQFAVYVKEVMEEIALPSLDFYLHDGVRAAGATLIPILLSCLLAATGTQNEELVLLWHKASSKLIGGLMSEPMPEITQVYHNSLVNGIKVMGDNCLSEDQLAAFTKGVSANLTDTYERMQDRHGDGDEYNENIDEEEDFTDEDLLDEINKSIAAVLKTTNGHYLKNLENIWPMINTFLLDNEPILVIFALVVIGDLIQYGGEQTASMKNAFIPKVTECLISPDARIRQAASYIIGVCAQYAPSTYADVCIPTLDTLVQIVDFPGSKLEENRSSTENASAAIAKILYAYNSNIPNVDTYTANWFKTLPTITDKEAASFNYQFLSQLIENNSPIVCAQSNISAVVDSVIQALNERSLTEREGQTVISSVKKLLGFLPSSDAMAIFNRYPADIMEKVHKWFA | binds | binds | binds | binds | binds weakly | binds | binds | binds | binds | binds | binds weakly | binds |
| full-length Pse1-G4AD (protein, UniProt P32337 1-1089) MSALPEEVNRTLLQIVQAFASPDNQIRSVAEKALSEEWITENNIEYLLTFLAEQAAFSQDTTVAALSAVLFRKLALKAPPSSKLMIMSKNITHIRKEVLAQIRSSLLKGFLSERADSIRHKLSDAIAECVQDDLPAWPELLQALIESLKSGNPNFRESSFRILTTVPYLITAVDINSILPIFQSGFTDASDNVKIAAVTAFVGYFKQLPKSEWSKLGILLPSLLNSLPRFLDDGKDDALASVFESLIELVELAPKLFKDMFDQIIQFTDMVIKNKDLEPPARTTALELLTVFSENAPQMCKSNQNYGQTLVMVTLIMMTEVSIDDDDAAEWIESDDTDDEEEVTYDHARQALDRVALKLGGEYLAAPLFQYLQQMITSTEWRERFAAMMALSSAAEGCADVLIGEIPKILDMVIPLINDPHPRVQYGCCNVLGQISTDFSPFIQRTAHDRILPALISKLTSECTSRVQTHAAAALVNFSEFASKDILEPYLDSLLTNLLVLLQSNKLYVQEQALTTIAFIAEAAKNKFIKYYDTLMPLLLNVLKVNNKDNSVLKGKCMECATLIGFAVGKEKFHEHSQELISILVALQNSDIDEDDALRSYLEQSWSRICRILGDDFVPLLPIVIPPLLITAKATQDVGLIEEEEAANFQQYPDWDVVQVQGKHIAIHTSVLDDKVSAMELLQSYATLLRGQFAVYVKEVMEEIALPSLDFYLHDGVRAAGATLIPILLSCLLAATGTQNEELVLLWHKASSKLIGGLMSEPMPEITQVYHNSLVNGIKVMGDNCLSEDQLAAFTKGVSANLTDTYERMQDRHGDGDEYNENIDEEEDFTDEDLLDEINKSIAAVLKTTNGHYLKNLENIWPMINTFLLDNEPILVIFALVVIGDLIQYGGEQTASMKNAFIPKVTECLISPDARIRQAASYIIGVCAQYAPSTYADVCIPTLDTLVQIVDFPGSKLEENRSSTENASAAIAKILYAYNSNIPNVDTYTANWFKTLPTITDKEAASFNYQFLSQLIENNSPIVCAQSNISAVVDSVIQALNERSLTEREGQTVISSVKKLLGFLPSSDAMAIFNRYPADIMEKVHKWFA |  | no binding |  |  |  |  |  |  |  |  |  | no binding |
